# From the supplement of paper PMC8728848
# Some of the results follow.
# B1: FaeGad (Escherichia coli) (protein)
# chain: WMTGDFNGSVDIGGSITADDYRQKWEWEVGTGLNGFGSVLNDLTNGGTKLTITVTGNKPILLGRTKEAFATPVTSGVDGIPHIAFTDYEGASVELRNPDGETEKGLTYFVLPMKNAEGTKVGSVKVNASYAGALGRGGVTSADGELMSLFAEGSHAIFYGGLPTNVKNSELKGGSAAAARTELFGSLSKNDILGQIQRVNANITSLVNVPGSFNENMAYTDGSVVSVAYALGIANGQTIEATFNQAVTTSTQWSAPLNVAITYY
# Experiments:
# Assay in all cases: glycan array binding signal (z-score within array); higher = stronger binding
# Conditions in all cases: glycan notation: IUPAC condensed, linker removed
# [1] = target: Neu5Ac(a2-8)Neu5Ac(a2-3)[GalNAc(b1-4)]Gal(b1-4)Glc
# Procedure, shortened: (§1)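 Arrays were curated from the Consortium for Functional Glycomics database, 3228 in total, and kept only where the protein sequence was available. Binding is expressed as a within-array Z-score. This score was averaged across arrays of the same protein sequence at different concentrations or buffers and across linkers, and negative values can be read as non-binding.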
# [2] = target: Neu5Ac(a2-8)Neu5Ac(a2-8)Neu5Ac
# Procedure, shortened: as §1
# [3] = target: Neu5Ac(a2-8)Neu5Ac(a2-8)Neu5Ac(a2-3)Gal(b1-4)Glc
# Procedure, shortened: as §1
# [4] = target: Neu5Ac(a2-8)Neu5Ac(a2-8)Neu5Ac(a2-3)[GalNAc(b1-4)]Gal(b1-4)Glc
# Procedure, shortened: as §1
# [5] = target: Neu5Ac(a2-8)Neu5Ac(a2-8)Neu5Ac(a2-8)Neu5Ac(a2-3)[GalNAc(b1-4)]Gal(b1-4)Glc
# Procedure, shortened: as §1
# Neu5Ac(b1-6)GalNAc = target: Neu5Ac(b1-6)GalNAc
# Procedure, shortened: as §1
# [6] = target: Neu5Ac(b2-6)Gal(b1-4)GlcNAc
# Procedure, shortened: as §1
# [7] = target: Neu5Ac9Ac(a2-6)Gal(b1-4)GlcNAc
# Procedure, shortened: as §1
# [8] = target: Neu5Gc(a2-3)Gal(b1-3)GlcNAc
# Procedure, shortened: as §1
# [9] = target: Neu5Gc(a2-3)Gal(b1-3)[Fuc(a1-4)]GlcNAc
# Procedure, shortened: as §1
# Neu5Gc(a2-3)Gal(b1-4)Glc = target: Neu5Gc(a2-3)Gal(b1-4)Glc
# Procedure, shortened: as §1
# [10] = target: Neu5Gc(a2-3)Gal(b1-4)GlcNAc
# Procedure, shortened: as §1
# [11] = target: Neu5Gc(a2-3)Gal(b1-4)[Fuc(a1-3)]GlcNAc
# Procedure, shortened: as §1
# [12] = target: Neu5Gc(a2-6)Gal(b1-4)GlcNAc
# Procedure, shortened: as §1
# Neu5Gc(a2-6)GalNAc = target: Neu5Gc(a2-6)GalNAc
# Procedure, shortened: as §1
binder,measurement,setting,value
B1,glycan array binding signal (z-score),[1],-0.388
same,glycan array binding signal (z-score),[2],-0.377
same,glycan array binding signal (z-score),[3],-0.341
same,glycan array binding signal (z-score),[4],-0.403
same,glycan array binding signal (z-score),[5],-0.335
same,glycan array binding signal (z-score),Neu5Ac(b1-6)GalNAc,0.051
same,glycan array binding signal (z-score),[6],-0.459
same,glycan array binding signal (z-score),[7],-0.506
same,glycan array binding signal (z-score),[8],-0.449
same,glycan array binding signal (z-score),[9],-0.179
same,glycan array binding signal (z-score),Neu5Gc(a2-3)Gal(b1-4)Glc,-0.432
same,glycan array binding signal (z-score),[10],-0.457
same,glycan array binding signal (z-score),[11],-0.436
same,glycan array binding signal (z-score),[12],-0.477
same,glycan array binding signal (z-score),Neu5Gc(a2-6)GalNAc,0.243
